Source: the antibiotic and cytotoxicity screens of Wong et al. (2023)
The other results are listed elsewhere or left out.

tested on: S. aureus RN4220; test: growth inhibition call (relative growth <= 0.2); settings: 50 µM

Growth inhibition call, inactive:
C[C@@H]1CCCCO[C@@H](CN(C)C(=O)Nc2ccc(C(F)(F)F)cc2)[C@@H](C)CN([C@H](C)CO)C(=O)c2cc(NC(=O)Nc3cccc4ccccc34)ccc2O1
Fc1ccc(C2=NNC3=NCCN3C2)cc1F
CO[C@H]1CN(C)C(=O)c2cc(NS(=O)(=O)c3cn(C)cn3)ccc2OC[C@H](C)N(CC2CC2)C[C@@H]1C
C[C@@H]1CN([C@H](C)CO)C(=O)c2cc(NC(=O)CCCN(C)C)ccc2O[C@H]1CN(C)Cc1ccc(C(=O)O)cc1
C[C@@H]1CN([C@H](C)CO)C(=O)c2cccc(NC(=O)Nc3ccc(F)cc3)c2O[C@H]1CN(C)S(C)(=O)=O
Cc1noc(C)c1S(=O)(=O)Nc1ccc2c(c1)C(=O)N([C@H](C)CO)C[C@H](C)[C@H](CN(C)S(=O)(=O)c1ccc(F)cc1)O2
CCCN(CCC)C(=O)C(CCC(=O)O)NC(=O)c1ccccc1 (stereo not given)
COc1ccccc1CNC(=O)C[C@H]1C[C@H]2c3cc(NC(=O)Nc4ccc(C(F)(F)F)cc4)ccc3O[C@H]2[C@@H](CO)O1
COc1cc2c(cc1OC)CN(C(=O)[C@H]1[C@@H]3C(=O)O[C@@H](c4ccccc4)[C@@H](c4ccccc4)N3[C@@H](c3ccc(O)cc3)[C@]13C(=O)Nc1ccc(C#CC4(O)CCCCCC4)cc13)CC2
C[C@H]1CN([C@@H](C)CO)C(=O)c2cc(NC(=O)Cn3cnnn3)ccc2O[C@H]1CN(C)C(=O)Nc1ccc(C(F)(F)F)cc1
C[C@@H]1CN([C@H](C)CO)C(=O)c2cc(NS(=O)(=O)c3cccs3)ccc2O[C@@H]1CN(C)S(=O)(=O)c1ccccc1
C[C@@H]1CCCCO[C@H](CN(C)C(=O)Nc2ccc3c(c2)OCO3)[C@@H](C)CN([C@H](C)CO)C(=O)c2cc(NC(=O)Nc3ccccc3)ccc2O1
CC(C)CC#Cc1ccc2c(c1)O[C@H](CN(C)C(=O)c1cnccn1)[C@H](C)CN([C@@H](C)CO)S2(=O)=O
Cc1nc2[nH]c(C)c(CCC(=O)O)c(=O)n2n1
COc1ccc(S(=O)(=O)N(C)C[C@@H]2Oc3ccc(NC(=O)Cn4cnnn4)cc3CC(=O)N([C@@H](C)CO)C[C@@H]2C)cc1
C[C@H](CO)N1C[C@H](C)[C@H](CN(C)CC2CCOCC2)Oc2cc(-c3cccnc3)ccc2S1(=O)=O
O=C(C[C@@H]1C[C@@H]2c3cc(NC(=O)C4CCOCC4)ccc3O[C@@H]2[C@@H](CO)O1)NCc1ccc2c(c1)OCO2
Cc1noc(C)c1S(=O)(=O)N(C)C[C@H]1Oc2c(NS(=O)(=O)c3cn(C)cn3)cccc2C(=O)N([C@@H](C)CO)C[C@@H]1C
COCCNC(=O)C[C@@H]1CC[C@@H](NS(=O)(=O)c2ccc(C)cc2)[C@@H](CO)O1
COCC(=O)Nc1ccc2c(c1)C(=O)N(C)[C@@H]1CC[C@H](CC(=O)NCc3ccc(OC)cc3)O[C@@H]1CO2
C[C@H]1CCCCO[C@@H](CN(C)C(=O)c2ccncc2)[C@@H](C)CN([C@@H](C)CO)C(=O)c2cc(NC(=O)NC3CCCCC3)ccc2O1
C[C@@H]1CN([C@H](C)CO)C(=O)c2cc(NC(=O)Nc3ccc(C(F)(F)F)cc3)ccc2O[C@@H]1CN(C)S(C)(=O)=O
O=C(C[C@@H]1CC[C@@H]2[C@H](COC[C@H](O)CN2C(=O)Nc2ccc(Cl)c(Cl)c2)O1)NCc1ccc(Cl)c(Cl)c1
CC(C)NC(=O)N(C)C[C@H]1Oc2c(NC(=O)Nc3ccc4c(c3)OCO4)cccc2C(=O)N([C@@H](C)CO)C[C@@H]1C
COc1ccc(-c2cc(=O)c3c(O)c(OC)c(OC4OC(COC5OC(C)C(O)C(O)C5O)C(O)C(O)C4O)cc3o2)cc1 (stereo not given)
C[C@@H]1CCCCO[C@H](CN(C)Cc2ccncc2)[C@H](C)CN([C@@H](C)CO)C(=O)c2cc(NC(=O)Cc3ccccc3)ccc2O1
C[C@@H]1CN([C@H](C)CO)C(=O)Cc2cc(NS(=O)(=O)c3ccc(F)cc3)ccc2O[C@@H]1CN(C)S(=O)(=O)c1ccccc1
C[C@@H]1CN([C@@H](C)CO)C(=O)Cc2cc(NS(=O)(=O)c3cn(C)cn3)ccc2O[C@@H]1CN(C)S(=O)(=O)c1ccccc1
C[C@@H]1CN([C@@H](C)CO)C(=O)c2cccc(NC(=O)C3CC3)c2O[C@H]1CN(C)Cc1ccc(Oc2ccccc2)cc1
CNC[C@@H]1OCCCC[C@H](C)Oc2ccc(NS(=O)(=O)c3cn(C)cn3)cc2C(=O)N([C@@H](C)CO)C[C@H]1C
CN(CCO)S(=O)(=O)c1ccc2c(c1)C(=NO)c1cc(S(=O)(=O)N(C)CCO)ccc1-2
C=CC(=O)N[C@@H]1c2ccccc2C[C@@H]1O
COCC#Cc1cnc2c(c1)C(=O)N([C@@H](C)CO)C[C@@H](C)[C@@H](CN(C)C(=O)CCN1CCCCC1)O2
COc1ccc(NC(=O)Nc2ccc3c(c2)C(=O)N([C@H](C)CO)C[C@H](C)[C@H](CN(C)Cc2ccc4c(c2)OCO4)OCCCC[C@H](C)O3)cc1
CO[C@@H]1CN(C)C(=O)c2ccc(NS(C)(=O)=O)cc2OC[C@@H](C)N(C(=O)C2CCOCC2)C[C@H]1C
COc1ccc(S(=O)(=O)N(C)C[C@H]2Oc3c(NS(=O)(=O)c4c(C)noc4C)cccc3C(=O)N([C@H](C)CO)C[C@H]2C)cc1
Cc1ccc(F)cc1NC(=O)[C@@H](C)N
COc1ccc(S(=O)(=O)N(C)C[C@H]2Oc3ccc(N(C)C)cc3CC(=O)N([C@H](C)CO)C[C@@H]2C)cc1
COc1ccc(CN(C)C[C@H]2Oc3c(NC(=O)c4ccc(-c5nccs5)cc4)cccc3C(=O)N([C@H](C)CO)C[C@H]2C)cc1
C[C@H](CO)N1C[C@H](C)[C@@H](CN(C)S(=O)(=O)c2ccc(Cl)cc2)OCCCC[C@H](C)Oc2ccc(NS(=O)(=O)c3ccccc3)cc2C1=O
